# The list shows a part of the results.
# Experiments:
# Test in all cases: glycan array binding signal (z-score within array); higher = stronger binding
# Conditions in all cases: glycan notation: IUPAC condensed, linker removed
# [1] = biological target: Fuc(a1-2)Gal6S(b1-3)GlcNAc6S
# Method in brief: (§1)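 Columns mapping to the same glycan were averaged after glycan names were converted to IUPAC-condensed notation. The data come from 3228 arrays in the Consortium for Functional Glycomics database, limited to those with an available protein sequence. Binding is reported as a within-array Z-score averaged across arrays of one protein sequence and across linkers.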
# Fuc(a1-2)Gal6S(b1-4)Glc = biological target: Fuc(a1-2)Gal6S(b1-4)Glc
# Method in brief: as §1
# [2] = biological target: Fuc(a1-2)Gal6S(b1-4)Glc6S
# Method in brief: as §1
# Fuc(a1-2)[Gal(a1-3)]Gal = biological target: Fuc(a1-2)[Gal(a1-3)]Gal
# Method in brief: as §1
# [3] = biological target: Fuc(a1-2)[Gal(a1-3)]Gal(b1-3)GalNAc
# Method in brief: as §1
# [4] = biological target: Fuc(a1-2)[Gal(a1-3)]Gal(b1-3)GalNAc(b1-3)Gal(a1-4)Gal(b1-4)Glc
# Method in brief: as §1
# [5] = biological target: Fuc(a1-2)[Gal(a1-3)]Gal(b1-3)GlcNAc
# Method in brief: as §1
# [6] = biological target: Fuc(a1-2)[Gal(a1-3)]Gal(b1-3)GlcNAc(b1-2)Man(a1-3)[Fuc(a1-2)[Gal(a1-3)]Gal(b1-3)GlcNAc(b1-2)Man(a1-6)]Man(b1-4)GlcNAc(b1-4)GlcNAc
# Method in brief: as §1
# [7] = biological target: Fuc(a1-2)[Gal(a1-3)]Gal(b1-3)GlcNAc(b1-2)Man(a1-3)[Fuc(a1-2)[Gal(a1-3)]Gal(b1-3)GlcNAc(b1-2)Man(a1-6)]Man(b1-4)GlcNAc(b1-4)[Fuc(a1-6)]GlcNAc
# Method in brief: as §1
# [8] = biological target: Fuc(a1-2)[Gal(a1-3)]Gal(b1-3)GlcNAc(b1-3)GalNAc
# Method in brief: as §1
# [9] = biological target: Fuc(a1-2)[Gal(a1-3)]Gal(b1-3)GlcNAc(b1-6)GalNAc
# Method in brief: as §1
# [10] = biological target: Fuc(a1-2)[Gal(a1-3)]Gal(b1-4)Glc
# Method in brief: as §1
# [11] = biological target: Fuc(a1-2)[Gal(a1-3)]Gal(b1-4)GlcNAc
# Method in brief: as §1
# [12] = biological target: Fuc(a1-2)[Gal(a1-3)]Gal(b1-4)GlcNAc(b1-2)Man
# Method in brief: as §1
# [13] = biological target: Fuc(a1-2)[Gal(a1-3)]Gal(b1-4)GlcNAc(b1-2)Man(a1-3)[Fuc(a1-2)[Gal(a1-3)]Gal(b1-4)GlcNAc(b1-2)Man(a1-6)]Man(b1-4)GlcNAc(b1-4)GlcNAc
# Method in brief: as §1
# [14] = biological target: Fuc(a1-2)[Gal(a1-3)]Gal(b1-4)GlcNAc(b1-2)Man(a1-3)[Fuc(a1-2)[Gal(a1-3)]Gal(b1-4)GlcNAc(b1-2)Man(a1-6)]Man(b1-4)GlcNAc(b1-4)[Fuc(a1-6)]GlcNAc
# Method in brief: as §1
# [15] = biological target: Fuc(a1-2)[Gal(a1-3)]Gal(b1-4)GlcNAc(b1-3)GalNAc
# Method in brief: as §1
# [16] = biological target: Fuc(a1-2)[Gal(a1-3)]Gal(b1-4)GlcNAc(b1-3)[Fuc(a1-2)[Gal(a1-3)]Gal(b1-4)GlcNAc(b1-6)]GalNAc
# Method in brief: as §1
# [17] = biological target: Fuc(a1-2)[Gal(a1-3)]Gal(b1-4)GlcNAc(b1-6)GalNAc
# Method in brief: as §1
# [18] = biological target: Fuc(a1-2)[Gal(a1-3)]Gal(b1-4)[Fuc(a1-3)]Glc
# Method in brief: as §1
# [19] = biological target: Fuc(a1-2)[Gal(a1-3)]Gal(b1-4)[Fuc(a1-3)]GlcNAc
# Method in brief: as §1
# [20] = biological target: Fuc(a1-2)[Gal(a1-3)]Gal(b1-4)[Fuc(a1-3)]GlcNAc(b1-3)GalNAc
# Method in brief: as §1
# [21] = biological target: Fuc(a1-2)[Gal(a1-4)]Gal(b1-4)GlcNAc
# Method in brief: as §1
# [22] = biological target: Fuc(a1-2)[GalNAc(a1-3)]Gal
# Method in brief: as §1
# [23] = biological target: Fuc(a1-2)[GalNAc(a1-3)]Gal(b1-3)GalNAc(a1-3)[Fuc(a1-2)]Gal(b1-4)GlcNAc
# Method in brief: as §1
# [24] = biological target: Fuc(a1-2)[GalNAc(a1-3)]Gal(b1-3)GalNAc(b1-3)Gal(a1-4)Gal(b1-4)Glc
# Method in brief: as §1
# [25] = biological target: Fuc(a1-2)[GalNAc(a1-3)]Gal(b1-3)GlcNAc
# Method in brief: as §1
# [26] = biological target: Fuc(a1-2)[GalNAc(a1-3)]Gal(b1-3)GlcNAc(b1-2)Man(a1-3)[Fuc(a1-2)[GalNAc(a1-3)]Gal(b1-3)GlcNAc(b1-2)Man(a1-6)]Man(b1-4)GlcNAc(b1-4)GlcNAc
# Method in brief: as §1
# [27] = biological target: Fuc(a1-2)[GalNAc(a1-3)]Gal(b1-3)GlcNAc(b1-2)Man(a1-3)[Fuc(a1-2)[GalNAc(a1-3)]Gal(b1-3)GlcNAc(b1-2)Man(a1-6)]Man(b1-4)GlcNAc(b1-4)[Fuc(a1-6)]GlcNAc
# Method in brief: as §1
# [28] = biological target: Fuc(a1-2)[GalNAc(a1-3)]Gal(b1-3)GlcNAc(b1-3)GalNAc
# Method in brief: as §1
# [29] = biological target: Fuc(a1-2)[GalNAc(a1-3)]Gal(b1-3)GlcNAc(b1-6)GalNAc
# Method in brief: as §1
# [30] = biological target: Fuc(a1-2)[GalNAc(a1-3)]Gal(b1-4)Glc
# Method in brief: as §1
# [31] = biological target: Fuc(a1-2)[GalNAc(a1-3)]Gal(b1-4)GlcNAc
# Method in brief: as §1
# [32] = biological target: Fuc(a1-2)[GalNAc(a1-3)]Gal(b1-4)GlcNAc(b1-2)Man
# Method in brief: as §1
# [33] = biological target: Fuc(a1-2)[GalNAc(a1-3)]Gal(b1-4)GlcNAc(b1-2)Man(a1-3)[Fuc(a1-2)[GalNAc(a1-3)]Gal(b1-4)GlcNAc(b1-2)Man(a1-6)]Man(b1-4)GlcNAc(b1-4)GlcNAc
# Method in brief: as §1
# [34] = biological target: Fuc(a1-2)[GalNAc(a1-3)]Gal(b1-4)GlcNAc(b1-2)Man(a1-3)[Fuc(a1-2)[GalNAc(a1-3)]Gal(b1-4)GlcNAc(b1-2)Man(a1-6)]Man(b1-4)GlcNAc(b1-4)[Fuc(a1-6)]GlcNAc
# Method in brief: as §1
# [35] = biological target: Fuc(a1-2)[GalNAc(a1-3)]Gal(b1-4)GlcNAc(b1-3)Gal(b1-4)GlcNAc
# Method in brief: as §1
# [36] = biological target: Fuc(a1-2)[GalNAc(a1-3)]Gal(b1-4)GlcNAc(b1-3)Gal(b1-4)GlcNAc(b1-3)Gal(b1-4)GlcNAc
# Method in brief: as §1
# [37] = biological target: Fuc(a1-2)[GalNAc(a1-3)]Gal(b1-4)GlcNAc(b1-3)GalNAc
# Method in brief: as §1
# [38] = biological target: Fuc(a1-2)[GalNAc(a1-3)]Gal(b1-4)GlcNAc(b1-3)[Fuc(a1-2)[GalNAc(a1-3)]Gal(b1-4)GlcNAc(b1-6)]GalNAc
# Method in brief: as §1
# [39] = biological target: Fuc(a1-2)[GalNAc(a1-3)]Gal(b1-4)GlcNAc(b1-6)GalNAc
# Method in brief: as §1
# [40] = biological target: Fuc(a1-2)[GalNAc(a1-3)]Gal(b1-4)[Fuc(a1-3)]GlcNAc
# Method in brief: as §1
# [41] = biological target: Fuc(a1-2)[GalNAc(a1-3)]Gal(b1-4)[Fuc(a1-3)]GlcNAc(b1-3)GalNAc
# Method in brief: as §1
# [42] = biological target: Fuc(a1-2)[GalNAc(a1-4)]Gal(b1-4)GlcNAc
# Method in brief: as §1
# [43] = biological target: Fuc(a1-2)[GalNAc(b1-3)]Gal
# Method in brief: as §1
binder,measurement,setting,value
"Pa IMPa (Pseudomonas aeruginosa), Q9I5W4 (protein) MSLSTTAFPSLQGENMSRSPIPRHRALLAGFCLAGALSAQAATQEEILDAALVSGDSSQLTDSHLVALRLQQQVERIRQTRTQLLDGLYQNLSQAYDPGAASMWVLPANPDNTLPFLIGDKGRVLASLSLEAGGRGLAYGTNVLTQLSGTNAAHAPLLKRAVQWLVNGDPGAATAKDFKVSVVGVDKTAALNGLKSAGLQPADAACNALTDASCASTSKLLVLGNGASAASLSATVRARLQAGLPILFVHTNGWNQSSTGQQILAGLGLQEGPYGGNYWDKDRVPSSRTRTRSVELGGAYGQDPALVQQIVDGSWRTDYDWSKCTSYVGRTTCDDVPGLSDFSKRVDVLKGALDAYNQKAQNLFALPGTTSLRLWLLWADAVRQNIRYPMDKAADTARFQETFVADAIVGYVREAGAAQKELGSYAGQRQQSMPVSGSEETLTLTLPSAQGFTAIGRMAAPGKRLSIRIEDAGQASLAVGLNTQRIGSTRLWNTRQYDRPRFLKSPDIKLQANQSVALVSPYGGLLQLVYSGATPGQTVTVKVTGAASQPFLDIQPGEDSSQAIADFIQALDADKADWLEIRSGSVEVHAKVEKVRGSIDKDYGGDVQRFIRELNEVFIDDAYTLAGFAIPNQAKTPAIQQECAARGWDCDSETLHKLPGTQHINVDQYAQCGGGCSGNPYDQTWGLNPRGWGESHELGHNLQVNRLKVYGGRSGEISNQIFPLHKDWRVLREFGQNLDDTRVNYRNAYNLIVAGRAEADPLAGVYKRLWEDPGTYALNGERMAFYTQWVHYWADLKNDPLQGWDIWTLLYLHQRQVDKSDWDANKAALGYGTYAQRPGNSGDASSTDGNDNLLLGLSWLTQRDQRPTFALWGIRTSAAAQAQVAAYGFAEQPAFFYANNRTNEYSTVKLLDMSQGSPAWPFP",glycan array binding signal (z-score),[1],2.91
same,glycan array binding signal (z-score),Fuc(a1-2)Gal6S(b1-4)Glc,-0.334
same,glycan array binding signal (z-score),[2],-0.061
same,glycan array binding signal (z-score),Fuc(a1-2)[Gal(a1-3)]Gal,-0.102
same,glycan array binding signal (z-score),[3],0.405
same,glycan array binding signal (z-score),[4],-0.276
same,glycan array binding signal (z-score),[5],0.223
same,glycan array binding signal (z-score),[6],-0.054
same,glycan array binding signal (z-score),[7],-0.134
same,glycan array binding signal (z-score),[8],0.134
same,glycan array binding signal (z-score),[9],-0.295
same,glycan array binding signal (z-score),[10],0.454
same,glycan array binding signal (z-score),[11],-0.075
same,glycan array binding signal (z-score),[12],0.066
same,glycan array binding signal (z-score),[13],-0.413
same,glycan array binding signal (z-score),[14],-0.407
same,glycan array binding signal (z-score),[15],-0.199
same,glycan array binding signal (z-score),[16],0.417
same,glycan array binding signal (z-score),[17],-0.268
same,glycan array binding signal (z-score),[18],-0.326
same,glycan array binding signal (z-score),[19],-0.141
same,glycan array binding signal (z-score),[20],-0.132
same,glycan array binding signal (z-score),[21],-0.253
same,glycan array binding signal (z-score),[22],-0.007
same,glycan array binding signal (z-score),[23],-0.32
same,glycan array binding signal (z-score),[24],-0.158
same,glycan array binding signal (z-score),[25],-0.035
same,glycan array binding signal (z-score),[26],-0.098
same,glycan array binding signal (z-score),[27],-0.127
same,glycan array binding signal (z-score),[28],-0.411
same,glycan array binding signal (z-score),[29],-0.321
same,glycan array binding signal (z-score),[30],-0.07
same,glycan array binding signal (z-score),[31],-0.169
same,glycan array binding signal (z-score),[32],0.093
same,glycan array binding signal (z-score),[33],-0.041
same,glycan array binding signal (z-score),[34],-0.216
same,glycan array binding signal (z-score),[35],-0.489
same,glycan array binding signal (z-score),[36],-0.22
same,glycan array binding signal (z-score),[37],-0.342
same,glycan array binding signal (z-score),[38],-0.147
same,glycan array binding signal (z-score),[39],-0.355
same,glycan array binding signal (z-score),[40],-0.022
same,glycan array binding signal (z-score),[41],-0.312
same,glycan array binding signal (z-score),[42],-0.112
same,glycan array binding signal (z-score),[43],-0.197

# From the supplement of paper PMC8728848
